The results in this text go back to paper PMC7819943, “Rice protein-binding microarrays: a tool to detect cis-acting elements near promoter regions in rice”.

The other results are listed elsewhere or left out.

The target of the assay is T1, OsWOX13 (Oryza sativa, UniProt Q5QMM3 1-267).
T1 sequence: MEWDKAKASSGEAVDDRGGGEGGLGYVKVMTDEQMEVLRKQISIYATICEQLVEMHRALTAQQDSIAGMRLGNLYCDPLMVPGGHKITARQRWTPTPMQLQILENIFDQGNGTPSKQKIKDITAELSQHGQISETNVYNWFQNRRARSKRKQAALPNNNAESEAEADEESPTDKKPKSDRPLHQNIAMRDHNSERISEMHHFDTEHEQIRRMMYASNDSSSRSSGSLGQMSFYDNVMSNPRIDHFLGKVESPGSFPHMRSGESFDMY
Description: protein-binding microarray (RPBM); PBS, 2% BSA, 51.3 ng/ul salmon testes DNA, 50 uM zinc acetate, 200 nM TF, 25 C, 1 h; high values mean tight binding. The following applies: protein: recombinant; tags: N-terminal polyhistidine and DsRed monomer fusion (pET32a); label: CyDye5-dUTP incorporated in the synthesized complementary strand; 3' TTTTT single-stranded linker to array surface; dsDNA, one strand shown. In a few lines: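 The binding signal is fluorescence intensity per array feature (arbitrary units). Readings came from an Axon 4000B scanner after a washed, 2% BSA-blocked, double-stranded custom Agilent array had been incubated for 1 h at 25 °C with 200 nM protein and 50 µM zinc acetate. The protein was a Ni–NTA-purified transcription factor fused N-terminally to polyhistidine and DsRed, expressed in E. coli BL21-CodonPlus.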
Turning to “TATTTTAATCTTATTATTGATATATGGTTTAGTTAATATGCGGAGTCACCTAGTGCAG”, the binding signal is 4480 fluorescence intensity (a.u.).

On to “ACCAGCATTCCTCATATTGATTGTCCACAGGGTGCTACAGCGGAGTCACCTAGTGCAG”, for which the binding signal was 4680 fluorescence intensity (a.u.).

On to “CCTGTGATGTGTGTAAAATTTGTGTGCCCGTCAAAGATGACGGAGTCACCTAGTGCAG”, for which the binding signal was 5060 fluorescence intensity (a.u.).

For “GCTAATTAATCTATTATTGATTTAGATGTATCGACCAGTTCGGAGTCACCTAGTGCAG”, the binding signal was 53500 fluorescence intensity (a.u.).

On to “GCCGATATATTGACAGCAATTAAGAGTATTCATAGTGTCACGGAGTCACCTAGTGCAG”, for which the binding signal is 16200 fluorescence intensity (a.u.).

Regarding “GTCTTGTTCATAATAGACTGGACTCTTTGATTCCTGTGTGCGGAGTCACCTAGTGCAG”, the binding signal is 3330 fluorescence intensity (a.u.).

On to “AGATGTATATTCAATCAAAGGTATCCCTCTTTTGGATTATCGGAGTCACCTAGTGCAG”, for which the binding signal was 4540 fluorescence intensity (a.u.).

With “AACAGAAATTAGTTGATGATCATGTAGAAAAGGTGAAAGCCGGAGTCACCTAGTGCAG”, the binding signal was 3720 fluorescence intensity (a.u.).

On to “GGGAAATTAGGGTTTCTAGAGGAGTTTACCTTCTCAATCGCGGAGTCACCTAGTGCAG”, for which the binding signal was 4080 fluorescence intensity (a.u.).

Regarding “GGGAAGACGAGATTGAGTGGATCAAAAGCCCTAAACCAATCGGAGTCACCTAGTGCAG”, the binding signal is 8660 fluorescence intensity (a.u.).

On to “TTTGATAGTTTGAACAGTGCATAAGACGGGTTTGGTTTGACGGAGTCACCTAGTGCAG”, for which the binding signal was 4040 fluorescence intensity (a.u.).

In the case of “GTATCTATCAAATTTTAATTGTGTGATACGACCATTAAAACGGAGTCACCTAGTGCAG”, the binding signal was 5230 fluorescence intensity (a.u.).

Take “CCATCATTATAATCTAAATTTGAGAGTCTGATCAAACCCACGGAGTCACCTAGTGCAG”: the binding signal is 7840 fluorescence intensity (a.u.).

In the case of “GCATAAAGAATCCAATCACGAACTCTTTGTTATTTTGAATCGGAGTCACCTAGTGCAG”, the binding signal is 6550 fluorescence intensity (a.u.).

For the sequence “ATTAGATTTACTACTGATGATACTTTCTTGGGTTAAAACTCGGAGTCACCTAGTGCAG”, the binding signal was 11700 fluorescence intensity (a.u.).

For “CTTAATTACGTACTCTACCACTACCCAGCTAGCTAGTTCACGGAGTCACCTAGTGCAG”, the binding signal is 29100 fluorescence intensity (a.u.).

As to “CAAAATAATTATGACATGAACAGTACTGAATATCAATTGTCGGAGTCACCTAGTGCAG”, the binding signal is 30400 fluorescence intensity (a.u.).

Take “TACCACAGATTGAATGAACATATTCAACAACAAAATCATACGGAGTCACCTAGTGCAG”: the binding signal was 14100 fluorescence intensity (a.u.).

In the case of “GGTAAGCATGTGATTTGTGGGAATGTTGGGCCCTAGCACACGGAGTCACCTAGTGCAG”, the binding signal was 3220 fluorescence intensity (a.u.).

With “GGAAAATGCTCTAATGATTGTTATGGAGTTTATCTGTAATCGGAGTCACCTAGTGCAG”, the binding signal is 5570 fluorescence intensity (a.u.).

For the sequence “TCCTGATTTTAAAATAAATAAAATAATTCCTGATACGTTTCGGAGTCACCTAGTGCAG”, the binding signal was 32700 fluorescence intensity (a.u.).

Consider “AATCAGTTAACTCTCTGCTGATTTGCTAATAACTGAAGTACGGAGTCACCTAGTGCAG”, for which the binding signal was 24500 fluorescence intensity (a.u.).

As for “TGGAATGAATTTGATGGAAACATATCCCGACTTTGTGCAGCGGAGTCACCTAGTGCAG”, the binding signal is 7030 fluorescence intensity (a.u.).

For “CCGCGCCGCAATTTGATTTGATTTCCTCCTTCTCCGCCGCCGGAGTCACCTAGTGCAG”, the binding signal was 5840 fluorescence intensity (a.u.).

In the case of “CTAAATTTTAAGTATAGCTAAATATTTACTCTACTGAGTCCGGAGTCACCTAGTGCAG”, the binding signal is 5190 fluorescence intensity (a.u.).

Turning to “TAACTATAATTATTTTCTTTGATAAACCTTTATACTCAGTCGGAGTCACCTAGTGCAG”, the binding signal is 17700 fluorescence intensity (a.u.).

For “TAGTAACTAATTAGATTACGAGACATACACAAGGTTAACACGGAGTCACCTAGTGCAG”, the binding signal is 24000 fluorescence intensity (a.u.).

Consider “TCTTTGATTACACCACAAGAGACACTCAACAAAGAAAAGTCGGAGTCACCTAGTGCAG”, for which the binding signal was 4380 fluorescence intensity (a.u.).

In the case of “TTCAAATTGGATCCATGCCACTGCAGCCAATTCAGAAGCACGGAGTCACCTAGTGCAG”, the binding signal was 7110 fluorescence intensity (a.u.).

“AAATTAACTCCAAATTTAAAGTTAGAAATTTAAATTTTGGCGGAGTCACCTAGTGCAG”: the binding signal was 11400 fluorescence intensity (a.u.).

As to “TTACAATTTAATTAAAATATATGTTGTATAATTATATTACCGGAGTCACCTAGTGCAG”, the binding signal is 10600 fluorescence intensity (a.u.).

Regarding “ACGTGCCTTGTGATTATCTTTTCTCGTACTGCGTCGTTGGCGGAGTCACCTAGTGCAG”, the binding signal is 3250 fluorescence intensity (a.u.).

On to “GCGATGAATCTAATCAAGATTTCCTGGAACCCTCATGTATCGGAGTCACCTAGTGCAG”, for which the binding signal is 3950 fluorescence intensity (a.u.).

Turning to “TCTGAATGGACACGTTTTACAATCACATCACATAGAGTAACGGAGTCACCTAGTGCAG”, the binding signal was 3420 fluorescence intensity (a.u.).

Turning to “ATTTGACACAAACTAACGGTTGGTTGAATTATTAGCACGCCGGAGTCACCTAGTGCAG”, the binding signal is 5760 fluorescence intensity (a.u.).

Regarding “CTAAATATACGCTAAACTGTTGTTTCGTTTTGCGTGCAATCGGAGTCACCTAGTGCAG”, the binding signal was 3580 fluorescence intensity (a.u.).

“ACTGATGAACTGATCCTCTCATTCAACGAAACCTGTGCAACGGAGTCACCTAGTGCAG”: the binding signal is 6630 fluorescence intensity (a.u.).

Take “ACTAAACTTTTAATTTTGACGTGAACTAAACACACGCTTTCGGAGTCACCTAGTGCAG”: the binding signal is 9450 fluorescence intensity (a.u.).

“CTGAATTGAGTGGAACAAGCCCGTGTACAGTACTTTGCTTCGGAGTCACCTAGTGCAG”: the binding signal was 8670 fluorescence intensity (a.u.).

With “ATATGTCTAGATTCATTAACATCAATTTTAATGTGGGAAACGGAGTCACCTAGTGCAG”, the binding signal was 3490 fluorescence intensity (a.u.).

In the case of “ACAAAACCATTTGTGATTTTCTTTGAGTGCCCAGTTTTGTCGGAGTCACCTAGTGCAG”, the binding signal is 3210 fluorescence intensity (a.u.).

On to “GCTGATGAAATATCAGATGCCCTTGTCAGTGTTCAAAGAGCGGAGTCACCTAGTGCAG”, for which the binding signal is 5130 fluorescence intensity (a.u.).
